{"source": "the supplement of paper PMC10126150", "note": "Sequences with one replicate were seen in a single cluster, so their values are uncertain.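 Further: ATP exposure 15 min at 22 °C before imaging.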"}
{"test_system": "ATP", "test": "switch fluorescence ratio, 500 uM ATP over buffer (Cy3 cluster intensity, sum of 5 cycles each) (fold (ratio)); higher = stronger signal-on switching upon ATP binding; sequences stand for … in TCGTCGGCAGCGTCAGATGTGTATAAGAGACAGTTTTTTTTTTTTTTTTTTTTTTTTT…TC", "details": "aptamer strand: ATP DNA aptamer (quencher-CACCTGGGGGAGTATTGCGGAGGAAGG + anchor), 100 nM annealed; ATP concentration: 500 uM; one replicate", "how_it_was_run": "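Cy3-labelled switching-strand clusters on a modified Illumina MiSeq flow-cell were annealed to 100 nM quencher-labelled ATP aptamer and imaged first in selection buffer, then after 15 min with 500 uM ATP at 22 °C. NaOH stripping and re-annealing separated each of five buffer/ATP cycles, and clusters outside 100-1000 RFU were excluded. The fluorescence ratio sums target-cycle Cy3 intensity over buffer-cycle Cy3 intensity per cluster and averages it per switch-domain sequence.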"}
{"sequence": "GATTTATCTA", "switch fluorescence ratio": 0.991}
{"sequence": "GATTTCGACG", "switch fluorescence ratio": 1.05}
{"sequence": "GATTTCGTCG", "switch fluorescence ratio": 0.992}
{"sequence": "GATTTCTGTC", "switch fluorescence ratio": 1.01}
{"sequence": "GATTTTCCC", "switch fluorescence ratio": 1.03}
{"sequence": "GATTTTCGTT", "switch fluorescence ratio": 1.01}
{"sequence": "GATTTTGGA", "switch fluorescence ratio": 0.978}
{"sequence": "GATTTTGGCA", "switch fluorescence ratio": 0.989}
{"sequence": "GATTTTGTAT", "switch fluorescence ratio": 0.957}
{"sequence": "GATTTTGTG", "switch fluorescence ratio": 0.933}
{"sequence": "GCAAAATT", "switch fluorescence ratio": 0.962}
{"sequence": "GCAAAGAAGG", "switch fluorescence ratio": 0.998}
{"sequence": "GCAAAGATGG", "switch fluorescence ratio": 1.01}
{"sequence": "GCAAATGCTT", "switch fluorescence ratio": 1.05}
{"sequence": "GCAAATTACT", "switch fluorescence ratio": 1.59}
{"sequence": "GCAACAACGA", "switch fluorescence ratio": 1.17}
{"sequence": "GCAACAGGAC", "switch fluorescence ratio": 1.29}
{"sequence": "GCAACCTCTG", "switch fluorescence ratio": 1.05}
{"sequence": "GCAACGGAAA", "switch fluorescence ratio": 1.03}
{"sequence": "GCAACGTATT", "switch fluorescence ratio": 1.07}
{"sequence": "GCAACTGTTT", "switch fluorescence ratio": 1.1}
{"sequence": "GCAAGAAAGC", "switch fluorescence ratio": 1.02}
{"sequence": "GCAAGAGTAG", "switch fluorescence ratio": 1}
{"sequence": "GCAAGATTAG", "switch fluorescence ratio": 1}
{"sequence": "GCAAGCAATA", "switch fluorescence ratio": 3.44}
{"sequence": "GCAAGCACGC", "switch fluorescence ratio": 1.33}
{"sequence": "GCAAGGGAGC", "switch fluorescence ratio": 1.02}
{"sequence": "GCAAGGGTCG", "switch fluorescence ratio": 1.18}
{"sequence": "GCAAGGTCAA", "switch fluorescence ratio": 1.02}
{"sequence": "GCAAGTCGCA", "switch fluorescence ratio": 0.973}
{"sequence": "GCAAGTGAGA", "switch fluorescence ratio": 1.03}
{"sequence": "GCAATAACGG", "switch fluorescence ratio": 1.99}
{"sequence": "GCAATCAAAA", "switch fluorescence ratio": 1.01}
{"sequence": "GCAATCACTA", "switch fluorescence ratio": 1.38}
{"sequence": "GCAATCGTTT", "switch fluorescence ratio": 1.01}
{"sequence": "GCAATCTACT", "switch fluorescence ratio": 1.84}
{"sequence": "GCAATGACGT", "switch fluorescence ratio": 1.06}
{"sequence": "GCAATGGCTA", "switch fluorescence ratio": 1.08}
{"sequence": "GCAATGTGTA", "switch fluorescence ratio": 1.02}
{"sequence": "GCAATTACTG", "switch fluorescence ratio": 1.98}
{"sequence": "GCAATTATAA", "switch fluorescence ratio": 1.07}
{"sequence": "GCAATTCAAA", "switch fluorescence ratio": 1.04}
{"sequence": "GCAATTTTTC", "switch fluorescence ratio": 1.01}
{"sequence": "GCACAAATTA", "switch fluorescence ratio": 1.02}
{"sequence": "GCACAAGGCA", "switch fluorescence ratio": 1.04}
{"sequence": "GCACAATCGT", "switch fluorescence ratio": 1.01}
{"sequence": "GCACACAGGT", "switch fluorescence ratio": 1.62}
{"sequence": "GCACAGTTAG", "switch fluorescence ratio": 0.982}
{"sequence": "GCACATAGTG", "switch fluorescence ratio": 0.991}
{"sequence": "GCACATATAG", "switch fluorescence ratio": 1.07}
{"sequence": "GCACCAAACG", "switch fluorescence ratio": 1.31}
{"sequence": "GCACCAACGA", "switch fluorescence ratio": 1.54}
{"sequence": "GCACCAACTT", "switch fluorescence ratio": 1.09}
{"sequence": "GCACCAGTCT", "switch fluorescence ratio": 1.03}
{"sequence": "GCACCCAAGG", "switch fluorescence ratio": 1.25}
{"sequence": "GCACCCCACG", "switch fluorescence ratio": 1.54}
{"sequence": "GCACCCTTGG", "switch fluorescence ratio": 1.02}
{"sequence": "GCACCGTGCT", "switch fluorescence ratio": 0.93}
{"sequence": "GCACCTAGGG", "switch fluorescence ratio": 0.973}
{"sequence": "GCACCTCTGG", "switch fluorescence ratio": 1.06}
{"sequence": "GCACGGCTTT", "switch fluorescence ratio": 1.1}
{"sequence": "GCACGGGTAT", "switch fluorescence ratio": 1}
{"sequence": "GCACGTAAG", "switch fluorescence ratio": 1.04}
{"sequence": "GCACTAAGTG", "switch fluorescence ratio": 1.01}
{"sequence": "GCACTCTATG", "switch fluorescence ratio": 1.01}
{"sequence": "GCACTGAGCG", "switch fluorescence ratio": 0.991}
{"sequence": "GCACTGTGAG", "switch fluorescence ratio": 1.05}
{"sequence": "GCACTTTGCC", "switch fluorescence ratio": 0.973}
{"sequence": "GCAGAAATTT", "switch fluorescence ratio": 0.973}
{"sequence": "GCAGAAGGAG", "switch fluorescence ratio": 0.993}
{"sequence": "GCAGAAGGTT", "switch fluorescence ratio": 1.17}
{"sequence": "GCAGACAGTG", "switch fluorescence ratio": 1}
{"sequence": "GCAGACCGGT", "switch fluorescence ratio": 1.04}
{"sequence": "GCAGACTTGT", "switch fluorescence ratio": 0.958}
{"sequence": "GCAGATACGA", "switch fluorescence ratio": 1.8}
{"sequence": "GCAGATGGCT", "switch fluorescence ratio": 1.05}
{"sequence": "GCAGCCAAAC", "switch fluorescence ratio": 3.07}
{"sequence": "GCAGCGCCCG", "switch fluorescence ratio": 1}
{"sequence": "GCAGCTACAT", "switch fluorescence ratio": 1.1}
{"sequence": "GCAGCTTAGG", "switch fluorescence ratio": 1.05}
{"sequence": "GCAGGACTAT", "switch fluorescence ratio": 1.09}
{"sequence": "GCAGGATGAT", "switch fluorescence ratio": 0.986}
{"sequence": "GCAGGCCTTC", "switch fluorescence ratio": 1.02}
{"sequence": "GCAGTAACG", "switch fluorescence ratio": 0.994}
{"sequence": "GCAGTGCACG", "switch fluorescence ratio": 1.03}
{"sequence": "GCAGTGCAGG", "switch fluorescence ratio": 1.04}
{"sequence": "GCAGTGCCCG", "switch fluorescence ratio": 0.989}
{"sequence": "GCAGTTTCGG", "switch fluorescence ratio": 0.973}
{"sequence": "GCATAAGTCT", "switch fluorescence ratio": 1.05}
{"sequence": "GCATAAGTTT", "switch fluorescence ratio": 1.04}
{"sequence": "GCATAGATGG", "switch fluorescence ratio": 1.02}
{"sequence": "GCATAGTTCC", "switch fluorescence ratio": 1.15}
{"sequence": "GCATAGTTG", "switch fluorescence ratio": 1.02}
{"sequence": "GCATATTCTT", "switch fluorescence ratio": 0.991}
{"sequence": "GCATCAGCAC", "switch fluorescence ratio": 1.13}
{"sequence": "GCATCAGCAG", "switch fluorescence ratio": 1.02}
{"sequence": "GCATCCTTGT", "switch fluorescence ratio": 1.01}
{"sequence": "GCATCGGAAA", "switch fluorescence ratio": 0.993}
{"sequence": "GCATCGGGAT", "switch fluorescence ratio": 1.03}
{"sequence": "GCATGATGTA", "switch fluorescence ratio": 0.972}
{"sequence": "GCATGGTCTA", "switch fluorescence ratio": 1.03}
{"sequence": "GCATGGTGGG", "switch fluorescence ratio": 1.01}
{"sequence": "GCATGGTGTT", "switch fluorescence ratio": 1.02}
{"sequence": "GCATGTATCT", "switch fluorescence ratio": 0.995}
{"sequence": "GCATGTATTA", "switch fluorescence ratio": 1.02}
{"sequence": "GCATGTTTCC", "switch fluorescence ratio": 1.07}
{"sequence": "GCATTAGACT", "switch fluorescence ratio": 0.953}
{"sequence": "GCATTAGGC", "switch fluorescence ratio": 0.977}
{"sequence": "GCATTATGCG", "switch fluorescence ratio": 0.992}
{"sequence": "GCATTCCGCT", "switch fluorescence ratio": 1.17}
{"sequence": "GCATTGCAGG", "switch fluorescence ratio": 1.01}
{"sequence": "GCATTGCGG", "switch fluorescence ratio": 0.992}
{"sequence": "GCATTTACTT", "switch fluorescence ratio": 1.05}
{"sequence": "GCATTTATAT", "switch fluorescence ratio": 0.968}
{"sequence": "GCCAAAATCC", "switch fluorescence ratio": 1.07}
{"sequence": "GCCAAAGCGC", "switch fluorescence ratio": 1.03}
{"sequence": "GCCAAAGTAG", "switch fluorescence ratio": 0.995}
{"sequence": "GCCAAATGAC", "switch fluorescence ratio": 1.19}
{"sequence": "GCCAACAAGA", "switch fluorescence ratio": 1.03}
{"sequence": "GCCAAGGTTG", "switch fluorescence ratio": 1.01}
{"sequence": "GCCAATGCCT", "switch fluorescence ratio": 1.01}
{"sequence": "GCCAATGGAT", "switch fluorescence ratio": 1.06}
{"sequence": "GCCAATTGCC", "switch fluorescence ratio": 1.02}
{"sequence": "GCCAATTGTC", "switch fluorescence ratio": 1.04}
{"sequence": "GCCACAGCGA", "switch fluorescence ratio": 1.27}
{"sequence": "GCCACCAAAG", "switch fluorescence ratio": 0.986}
{"sequence": "GCCACCATCG", "switch fluorescence ratio": 0.989}
{"sequence": "GCCACCTTCA", "switch fluorescence ratio": 1.61}
{"sequence": "GCCACGACGG", "switch fluorescence ratio": 1.03}
{"sequence": "GCCAGATTAC", "switch fluorescence ratio": 1.06}
{"sequence": "GCCAGCCAGC", "switch fluorescence ratio": 1.04}
{"sequence": "GCCAGCGTCG", "switch fluorescence ratio": 0.964}
{"sequence": "GCCAGCTCAC", "switch fluorescence ratio": 1.13}
{"sequence": "GCCAGGACAT", "switch fluorescence ratio": 0.943}
{"sequence": "GCCAGGTGGC", "switch fluorescence ratio": 1.26}
{"sequence": "GCCAGTAGTA", "switch fluorescence ratio": 0.966}
{"sequence": "GCCAGTTACC", "switch fluorescence ratio": 1.06}
{"sequence": "GCCAGTTGGT", "switch fluorescence ratio": 1.04}
{"sequence": "GCCATAAACT", "switch fluorescence ratio": 0.983}
{"sequence": "GCCATAGACT", "switch fluorescence ratio": 0.979}
{"sequence": "GCCATCGGCG", "switch fluorescence ratio": 0.933}
{"sequence": "GCCATCGTCT", "switch fluorescence ratio": 1.01}
{"sequence": "GCCATGATGA", "switch fluorescence ratio": 0.989}
{"sequence": "GCCATTATGT", "switch fluorescence ratio": 1.02}
{"sequence": "GCCATTCAGC", "switch fluorescence ratio": 1.05}
{"sequence": "GCCATTGGGC", "switch fluorescence ratio": 1.03}
{"sequence": "GCCCAAAGAG", "switch fluorescence ratio": 1.02}
{"sequence": "GCCCACAATA", "switch fluorescence ratio": 1.53}
{"sequence": "GCCCATAAAT", "switch fluorescence ratio": 0.962}
{"sequence": "GCCCATCTGA", "switch fluorescence ratio": 0.967}
{"sequence": "GCCCCATGGG", "switch fluorescence ratio": 1.05}
{"sequence": "GCCCCCGTCG", "switch fluorescence ratio": 1.03}
{"sequence": "GCCCCTACAC", "switch fluorescence ratio": 1.02}
